Read counts are not given, so values of variants with three or more changes are uncertain.

First the molecules themselves.
B1: LINE1-mini (parent)
chain: GGCAGAGCUCAACACAGCGUGGCAAAGUGGCUGUGGCUAGACUGCC

The data set covers variants of B1. The experiment in a line: self-cleavage, relative activity (ratio to wild type); higher = more cleavage; in vitro, sequencing; the parent is a self-cleaving ribozyme.
As to GGCAAAGCUCAACACAGCGUGGCAAAGUGGCUGUGGCUAGUCUUCC [G5A A41U G44U], the self-cleavage came out at 0.05. To GGCAAAGCUCAACACCUAGUGGCAAAGUGGCUGUGGCUAGACGACC [G5A A16C G17U C18A U43G G44A] belongs 0.07; to GGCAAAGCUCUACACAGCGUGGCAAAGUGGCUGUGGCCAUACUGCC [G5A A11U U38C G40U], 0.04. To GGCAAAGCUCAACUCAUCGUGGCAAACUGGCUGUGACUAUACUGCC [G5A A14U G17U G27C G36A G40U] belongs 0.07; to GGCAAAGCUCAACGCAGCGUGGCAACGUGGCUGUGGCUAGACUGCC [G5A A14G A26C], 0.07; to GGCAAAGAUCAACACAGCGUGCGAAAGCGGCUGUGGCUAGGCUGCC [G5A C8A G22C C23G U28C A41G], 0.07. As for GGCAAAGAUGAACACAGCGUGGUAAAGUGGAUGUGGCUAAACUGGC [G5A C8A C10G C23U C31A G40A C45G], the self-cleavage worked out at 0.02. The figure for GGCAAAGAUCAACACAGCGUGGCAAAGUGGGUGUGGAUAGACUGCC [G5A C8A C31G C37A] is 0.03. Regarding GGCAAAGGUCAACACAGCGUGGCAAAGUGGCUGUGGCCAGACUGUC [G5A C8G U38C C45U], the self-cleavage came out at 0.07. Consider GGCAAAGCUCAACGCAGCGUGGCUAAGUGGCUGUGGCGAGACUGCC [G5A A14G A24U U38G], for which the self-cleavage was 0.1.

Take GGCAAAGCUCAUCACAGCGUGGCAAAGUGGAUGUGGCUAGACUGCC [G5A A12U C31A]: the self-cleavage worked out at 0.07. The figure for GGCAAAGCUCAACACGGCGUGGCAAAGUGGCUGUGGCUAGACGGUC [G5A A16G U43G C45U] is 0; for GGCAAAGCUCUACACAGCAUUGCAAAGUGGCUGUGGCUAGACUGCC [G5A A11U G19A G21U] it is 0.02. The figure for GGCAAAGCUCAACACUGCGUGGCAAAGUGGCUGGGGCUAGACUGCC [G5A A16U U34G] is 0.02.

Turning to GGCAAAGCUCAACACAGCGUGGCAAAGUGGCUGUGGCUCGAUUGCC [G5A A39C C42U], the self-cleavage stood at 0.06. On to GGCAAAGUUCAAAACAGCGUGGCAAAGUGGCUGUGGGUAGACCGCC [G5A C8U C13A C37G U43C], for which the self-cleavage worked out at 0.23. As to GGCAAAGCUCAACCCAGCGUGACAAAGUGGCUGUGGCUAGACUGCC [G5A A14C G22A], the self-cleavage was determined as 0. Turning to GGCAAAGCUCAACACCGCGUGGCAAAGUGGCUGUGGCUAGACUGCU [G5A A16C C46U], the self-cleavage is 0.03. As to GGCAAAGCUCAACACAGCGUGGCAACGUGGCUGUGGCUAGACUGUC [G5A A26C C45U], the self-cleavage was 0.13.

With GGCAAAGCUCAACACCGCGUGUCAAAGUCGCUGUGGCUAGACUGCC [G5A A16C G22U G29C], the self-cleavage was 0.04. To GGCAAAGCUCAACCCAGCGUCGCAAAGUGGCUGUGGCUAGACUGCC [G5A A14C G21C] belongs 0.15.

Turning to GGCAAAGAUCAACACAGCGUGGCACAGUGGCUGUGGCUAGAUUCCC [G5A C8A A25C C42U G44C], the self-cleavage is 0.02.

As for GGCAAAGAUCAACACAGCGUGGCAAAGUGGCUGUGUCUAGACUCCC [G5A C8A G36U G44C], the self-cleavage was 0.07. To GGCAAAGAUCAACACAGCGUUGCAAAGUGGCUGUGGCUAGACUGCC [G5A C8A G21U] belongs 0.02. The figure for GGCAAAGGUCAAUAAAGCGUGGCAAAGUGGCUGUGGCUAGACUGCC [G5A C8G C13U C15A] is 0.1; for GGCAAAGCUCAACACGGCGUGGCAAAGUGGCUGUGGCUAAACUGAC [G5A A16G G40A C45A] it is 0; for GGCAAAGCUCAACACAGCGUGGCUAAGUGGCUGUUGCUAGACACCC [G5A A24U G35U U43A G44C] it is 0.05. To GGCAAAGAUCAACACAGCGUGGCAAAGUGGCUUUGGCUAGACUGCC [G5A C8A G33U] belongs 0.29; to GGCAAAGAUCAACACAGCGCGGCAAAGUGGUUGUGGCUAGACUGCC [G5A C8A U20C C31U], 0.04. On to GGCAAAGAUCAACACAGCCUGGCAAAGGGGCUGUGGCUAGACUGCC [G5A C8A G19C U28G], for which the self-cleavage is 0.21. Regarding GGCAAAGUUCAGCACAGCGUGGCAAAGUGGCUGUGGCUAGACUGCC [G5A C8U A12G], the self-cleavage amounted to 0.02.

In the case of GGCAAAGCUCGACAGAGCGUGGCAAUGUGGCUGUGGCUAGACUGCC [G5A A11G C15G A26U], the self-cleavage was determined as 0.01. The figure for GGCAAAGCUCAUCAUAGCGUGGCAAAGGGGCUGAGGCUAGACUGCC [G5A A12U C15U U28G U34A] is 0.01; for GGCAAAGCUCAACUAAGCGUGGCAAAGUGGCUUAGGCUAGACUGCC [G5A A14U C15A G33U U34A] it is 0.3; for GGCAAAGCUCAGCACAGCCUGGCAAAGUGGCUGUGGCUAGACUGCC [G5A A12G G19C] it is 0.03. The figure for GGCAAAGCUCACCUCAGCGUGGCAAAGUGGCUGUGGCUAGACUGCC [G5A A12C A14U] is 0.12; for GGCAAAGCUCACCACAUCCUGGCAAAGUGGCUGUGGCUAGACUGCC [G5A A12C G17U G19C] it is 0.03.

For the variant GGCAAAGCUCUACACAGCGUGGCAAAGUGGCUGUGGAUAGACUGCC [G5A A11U C37A], the self-cleavage stood at 0.03.

With GGCAAAGCUCAACACUGCGUGGCAAAGUAGCUGUGGCUAGGCCGCC [G5A A16U G29A A41G U43C], the self-cleavage came to 0.02. The figure for GGCAAAGCUCAACACAGCGUGGCAGAGUGGCUCUGGCUAGACUGCC [G5A A25G G33C] is 0.03; for GGCAAAGCUCUACACAGCGUGGCAAAGUGGCUGUGGCUAGAUUGCC [G5A A11U C42U] it is 0.09; for GGCAAAGUGCAACACAGCGUGGCAAGGUGGCUGUGGCUAUACUGCC [G5A C8U U9G A26G G40U] it is 0.01. The figure for GGCAAAGCUCAACACUGCGUGGCAAAGUGCCUGUGGCUAGACUGCC [G5A A16U G30C] is 0.06; for GGCAAAGCUCAACACAGCGUGGCCACGUGGCUGUGGCUAGACUGCC [G5A A24C A26C] it is 0.07. The figure for GGCAAAGGUCAAGACAGCGUGGCAAAGUGGCUGUGGCUAGACUGCG [G5A C8G C13G C46G] is 0.1. Regarding GGCAAAGGUCAACACAGCUUGGCAAAGUGGCUGUGGCUAGACUGCC [G5A C8G G19U], the self-cleavage came out at 0.01.

GGCAAAGCUCGACACAGCUAGGCAAAGUGGCUGUGGCAAGACUGCC [G5A A11G G19U U20A U38A]: the self-cleavage came out at 0.02. To GGCAAAGCUCAACUCAGCGUGGCAAAGUGGCUGAGGCUAGACUGCC [G5A A14U U34A] belongs 0.06; to GGCAAAGCUCAACACAGCGUGGCACAGUGGAUGUGGCAAGACUGCC [G5A A25C C31A U38A], 0.05; to GGCAAAGCUCUUCACAGCGUGGCAAAGUGGCUGUGGCUAGACUGCU [G5A A11U A12U C46U], 0.02.

Turning to GGCAAAGCUCGACAGAGCGUGGCGAAGUGCCUGAGUCUAGACUGCU [G5A A11G C15G A24G G30C U34A G36U C46U], the self-cleavage is 0. To GGCAAAGCUCAACACGGCGUGGCAAAUUGGGUUUGGCUAGACUGCC [G5A A16G G27U C31G G33U] belongs 0.01. The figure for GGCAAAGCUCAACACAGCGUGGCAACGUGGCUGUUACUAGACUGCC [G5A A26C G35U G36A] is 0.05; for GGCAAAGCUCAACACAGCGUGGCAAAGUGGCUGUGGCUUGCCGGCC [G5A A39U A41C U43G] it is 0.01; for GGCAAAGCUCAACCCAGGGUGGGAAAGUGGUUUUGGCUGGACUGCC [G5A A14C C18G C23G C31U G33U A39G] it is 0.01. To GGCAAAGAUCAACACAGCGUGGCAAAAUGGCUGUAGCUAGACUGCU [G5A C8A G27A G35A C46U] belongs 2.44.

Values taken from the RNAGym collection of RNA variant scans (doi:10.7554/elife.90254).
